In the BET-seq Pho4 binding data (Le et al. 2018):
The list shows a part of the results. These are noisy estimates, calculated here from bound and input reads.

target: T1, Pho4 (S. cerevisiae) (UniProt P07270); test: relative binding free energy (BET-seq); higher = weaker binding; details: reference: library average
T1 sequence: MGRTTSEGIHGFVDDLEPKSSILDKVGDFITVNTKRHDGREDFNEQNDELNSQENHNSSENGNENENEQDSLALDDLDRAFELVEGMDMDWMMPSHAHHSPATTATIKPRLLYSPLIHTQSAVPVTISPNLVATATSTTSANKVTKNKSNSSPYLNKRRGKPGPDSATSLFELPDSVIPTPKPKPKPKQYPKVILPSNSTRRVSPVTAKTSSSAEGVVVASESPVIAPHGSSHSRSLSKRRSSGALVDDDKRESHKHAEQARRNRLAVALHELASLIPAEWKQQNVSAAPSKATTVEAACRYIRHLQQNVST

Sequence | relative binding free energy [kcal/mol]
AGGGACACGTGTTTGA | 0.05
GGGGGCACGTGGCAGT | -0.25
TCATGCACGTGTGGAT | 0.07
AAGAGCACGTGTTATT | -0.07
GAGTGCACGTGCGGTG | -0.16
GATTGCACGTGGTTAT | 0.06
GTAGGCACGTGTTAGA | -0.16
TTATGCACGTGCGGTA | -0.09
AAGTGCACGTGCGGGT | -0.08
AATTCCACGTGGTGGG | -0.14
TGAAGCACGTGGCTGC | 0.07
GATCGCACGTGTGGTT | 0
AGTTACACGTGGCTTG | -0.01
TGCGGCACGTGTTAAG | -0.22
ATGTACACGTGGTAGG | 0.03
TTTAGCACGTGGTACA | -0.22
CGGTGCACGTGGGACT | 0
AATTGCACGTGACGTG | 0.08
GGTAACACGTGAAGCG | 0.29
TTGTACACGTGTAAGG | 0.24
TGCATCACGTGTGGTG | 0.19
TATAACACGTGATGTA | 0.07
TAGTGCACGTGGCGTC | -0.09
TAGTGCACGTGGGATA | -0.17
GTTCTCACGTGTTGGG | 0.33

Sequence | relative binding free energy [kcal/mol]
GTTGCCACGTGGGTAT | -0.2
TGCGGCACGTGTTGTT | -0.12
CTTGTCACGTGCGTAT | 0.08
AGCATCACGTGAAGTG | 0.24
GCTGGCACGTGAGTGA | 0.15
GTGCTCACGTGGTAAT | 0.32
CGTTGCACGTGTTATG | -0.12
CGTTACACGTGTATAT | 0.13
ATGGGCACGTGCAATG | -0.13
CGAATCACGTGTGTTA | 0.2
TGAGTCACGTGAGTCT | 0.25
AGCGGCACGTGTGAGG | 0.07
TAAAGCACGTGGTAGT | -0.19
AGAATCACGTGGGTGT | 0.11
TGAGGCACGTGATCGT | -0.11
GTTTTCACGTGGCAGG | 0.26
TATAGCACGTGAGGGG | 0.17
GCTTACACGTGTAGTG | 0.05
AATCGCACGTGTTATG | -0.02
GTTTCCACGTGTGCTG | 0.26
GCTTTCACGTGTGATT | 0.37
ACGTTCACGTGTCGGT | 0.14
GTCAACACGTGTGTGT | 0.03
GTGATCACGTGGCTAG | 0.06
AGGTGCACGTGCTGTC | -0.11

Sequence | relative binding free energy [kcal/mol]
TTTTCCACGTGAGGGA | 0.27
TTGGCCACGTGCGATT | 0.09
TTAGGCACGTGATTGG | 0.02
AAGAACACGTGTTGGG | 0.02
CTTTTCACGTGGGGCT | 0.09
GAGATCACGTGCGGTG | 0.21
TAAAGCACGTGGGTAG | -0.22
TTTCGCACGTGAGGCG | 0.18
CAGTGCACGTGGTTTG | -0.01
ATGTACACGTGATGCT | 0.13
GTAATCACGTGCGTGG | -0.01
TTTAGCACGTGGGGAC | -0.14
AAATTCACGTGTTCGG | 0.13
GCGGGCACGTGAGTTT | 0.2
GTCGACACGTGTGCGG | 0.06
TGCTTCACGTGGGGCT | 0.12
TTGTGCACGTGGGCGT | -0.18
AGTTTCACGTGGTGGA | 0.33
GTAATCACGTGGTTGG | 0.26
TTAACCACGTGTGTTA | 0.01
CATCGCACGTGTTAGG | 0.16
TGTGACACGTGAACTG | 0.33
GTAATCACGTGTTGGA | 0.17
TTAGTCACGTGGAATG | 0.11
GTTTGCACGTGAAGAG | 0.24

Sequence | relative binding free energy [kcal/mol]
CAGGACACGTGAGGTT | 0.27
TGGGGCACGTGACTCG | 0.09
TGTGTCACGTGGACGT | 0.07
CTGGGCACGTGTGTCG | -0.18
GTTGTCACGTGGCCTG | 0.05
TATTGCACGTGGTGAG | -0.05
GATTTCACGTGTATAA | 0.44
ATGGTCACGTGTATAT | 0.1
TTAAACACGTGAGTGG | 0.2
TTGGTCACGTGGAGAG | 0.13
ATTCTCACGTGTATGT | 0.11
TATATCACGTGTGGGG | 0.23
AGGCGCACGTGCGGGT | -0.25
GGGTCCACGTGGGCTG | 0
AGCTTCACGTGGGGCA | 0.16
TCTTTCACGTGTGTGA | 0.14
CTAATCACGTGTAGGG | 0.17
CTTGGCACGTGTAAAT | 0.23
ATGTGCACGTGAGGAT | 0.22
TGCATCACGTGTATTT | 0.18
ATTGACACGTGAAGAG | 0.15
GAGGTCACGTGGTGCA | 0.04
TTTTACACGTGGTTGC | 0.08
GGGGCCACGTGGTACG | -0.18
GGTATCACGTGTTCGA | 0.19

Sequence | relative binding free energy [kcal/mol]
CTTGTCACGTGGCGGG | -0.01
TAAAGCACGTGTCGTT | 0
TATAACACGTGCGGTG | -0.12
AGGGGCACGTGGCCAT | -0.21
AGTTTCACGTGGCGCG | 0.19
GAGGGCACGTGTTTCA | 0.04
ACTGTCACGTGTCTGT | 0.13
GCGGGCACGTGAGATT | 0.24
AGGATCACGTGTATTG | 0.02
GTTAACACGTGTGTCA | 0.01
GTGGTCACGTGTCGGT | 0.27
TGTTACACGTGATGCC | 0.27
TAAAGCACGTGGAGAG | 0.04
TTATTCACGTGGTCAA | 0.13
GTAGTCACGTGGGCGT | 0.12
TGTGCCACGTGTTGGA | -0.12
TTGGACACGTGTGTTG | 0.13
ATATTCACGTGGGGTA | 0.12
ATGGACACGTGACAGG | 0.15
TGCGTCACGTGATTCT | 0.28
GCGTGCACGTGGGGTC | -0.24
AGAGTCACGTGGTACG | 0.02
TGGAACACGTGTTCGT | 0.12
GAGTTCACGTGATGGA | 0.42
GGTTTCACGTGCAGGC | 0.39

Sequence | relative binding free energy [kcal/mol]
GGGTCCACGTGAGGTC | 0.48
GTGTTCACGTGTCGAT | 0.23
TTCTGCACGTGGGCAG | -0.21
GATGACACGTGGTGCG | 0.01
TTTTGCACGTGGGAAA | 0.08
AGGTCCACGTGAATGT | 0.21
TGGATCACGTGGTGTG | 0.03
GATTGCACGTGTGGAA | 0.1
GTCAGCACGTGGGAGA | -0.1
TTTTGCACGTGGATTA | 0.07
TGGGACACGTGGTTTC | 0.12
TATAACACGTGTCTGT | 0.04
TAAAGCACGTGGTCTG | -0.2
GATATCACGTGTTGGC | 0.34
TTAAGCACGTGGCGTA | -0.26
TGGGGCACGTGGCATA | -0.25
CGGTTCACGTGGCAAG | 0.24
CGAGGCACGTGTTAGT | -0.09
ATCATCACGTGTTAGG | 0.23
TTAGACACGTGAGGTG | 0.25
CATTGCACGTGAAGTG | 0.1
